Residue numbers refer to the chain shown, from its start. No constants are given. Whether binding was seen depends on the method and setting.

We go through 1 molecule from paper PMC9308819 (Nature Communications, 2022).

Experiment in all cases: ITC; 500/600 µM GppNHp/GTP Rab titrated into 50/60 µM Rep15; 20 mM Hepes 8.0, 50 mM NaCl, 1 mM MgCl2, 1 mM TCEP; one-site-binding model; both purified
For orientation: Isothermal titration calorimetry measures the heat released or taken up as one component is titrated into another.

The target in one assay is T1, Rep15 Q107A (human) (UniProt Q6BDI9).
T1 sequence: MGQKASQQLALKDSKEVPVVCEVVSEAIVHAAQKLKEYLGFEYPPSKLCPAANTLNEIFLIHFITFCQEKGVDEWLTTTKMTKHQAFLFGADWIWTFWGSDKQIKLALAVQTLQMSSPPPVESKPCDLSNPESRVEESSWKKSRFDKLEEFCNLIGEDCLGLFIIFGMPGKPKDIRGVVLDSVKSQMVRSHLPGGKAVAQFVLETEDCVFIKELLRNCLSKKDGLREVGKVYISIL

For a further assay, the target named is T2, Rep15 H84A_Q85A (human) (UniProt Q6BDI9).
T2 sequence: T1 sequence with H84A, Q85A, A107Q

For assay [1], the target named is T3, Rep15 L154A_I155A (human) (UniProt Q6BDI9).
T3 sequence: T1 sequence with A107Q, L154A, I155A

B1: Rab3A, purified, nucleotide-loaded (natural protein, human, UniProt P20336 1-220, looked up)
chain: MASATDSRYGQKESSDQNFDYMFKILIIGNSSVGKTSFLFRYADDSFTPAFVSTVGIDFKVKTIYRNDKRIKLQIWDTAGQERYRTITTAYYRGAMGFILMYDITNEESFNAVQDWSTQIKTYSWDNAQVLLVGNKCDMEDERVVSSERGRQLADHLGFEFFEASAKDNINVKQTFERLVDVICEKMSESLDTADPAVTGAKQGPQLSDQQVPPHQDCAC
notes: Rab3A, human; Loaded with GppNHp (aSEC, ITC) or mant-GppNHp (stopped flow); also called Rab3A_(GppNHp); Rab3A_(mantGppNHp); source: E. coli BL21 Codon-Plus (DE3)-RIL, purified (Ni Sepharose, TEV cleavage, gel filtration)
Take B1: the binding entry (in the assay with Rep15 Q107A (human); with Rep15 H84A_Q85A (human); in assay [1]) was “no binding (tested: 500 µM Rab titrated into 50 µM Rep15)” each time.
